US20230416313A1 (published 2023)

Legend:
[1] = target: T1, recombinant human complement factor H (CFH), isolated from moss (human, UniProt P08603 19-1231); assay: BLI; steady state
T1 chain: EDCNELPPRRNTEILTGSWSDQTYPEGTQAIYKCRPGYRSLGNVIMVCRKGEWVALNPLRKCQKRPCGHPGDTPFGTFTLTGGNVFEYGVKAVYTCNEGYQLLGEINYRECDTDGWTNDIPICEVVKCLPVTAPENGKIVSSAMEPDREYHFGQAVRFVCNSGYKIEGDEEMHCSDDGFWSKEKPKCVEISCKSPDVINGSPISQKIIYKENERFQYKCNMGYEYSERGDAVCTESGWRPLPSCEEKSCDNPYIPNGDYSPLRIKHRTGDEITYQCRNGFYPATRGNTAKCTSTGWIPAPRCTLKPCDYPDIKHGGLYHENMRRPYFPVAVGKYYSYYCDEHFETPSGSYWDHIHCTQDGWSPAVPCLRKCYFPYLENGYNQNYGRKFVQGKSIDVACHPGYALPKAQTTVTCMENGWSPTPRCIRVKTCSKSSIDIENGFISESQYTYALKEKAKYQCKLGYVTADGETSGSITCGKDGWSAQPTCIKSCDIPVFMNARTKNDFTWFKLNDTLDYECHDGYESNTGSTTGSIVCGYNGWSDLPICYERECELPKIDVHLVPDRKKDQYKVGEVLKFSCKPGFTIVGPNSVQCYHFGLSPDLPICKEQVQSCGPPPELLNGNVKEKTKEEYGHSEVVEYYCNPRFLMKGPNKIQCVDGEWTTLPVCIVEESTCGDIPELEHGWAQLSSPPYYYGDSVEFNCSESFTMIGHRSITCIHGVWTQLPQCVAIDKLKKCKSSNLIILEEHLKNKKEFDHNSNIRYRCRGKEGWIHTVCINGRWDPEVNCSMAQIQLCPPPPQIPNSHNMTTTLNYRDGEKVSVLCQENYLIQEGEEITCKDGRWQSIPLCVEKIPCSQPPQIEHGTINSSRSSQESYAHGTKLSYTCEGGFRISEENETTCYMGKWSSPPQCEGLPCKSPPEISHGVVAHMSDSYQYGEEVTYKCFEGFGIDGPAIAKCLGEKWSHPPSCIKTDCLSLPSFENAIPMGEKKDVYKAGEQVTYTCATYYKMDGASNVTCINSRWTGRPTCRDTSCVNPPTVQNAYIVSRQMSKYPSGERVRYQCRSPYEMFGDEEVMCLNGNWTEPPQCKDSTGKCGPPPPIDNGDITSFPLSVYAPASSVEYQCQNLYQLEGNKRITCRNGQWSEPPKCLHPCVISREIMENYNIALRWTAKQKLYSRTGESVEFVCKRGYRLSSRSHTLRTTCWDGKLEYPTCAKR

[2] = target: T1, recombinant human complement factor H …; assay: SPR; kinetic

B1: 209466 (protein)
chain: NAADKDFAQESAEYEILMLPNLTLDQAYSFILSLKSDPSVSKEVLGEAQKLNDSQAPK
[1]
  Kd: 66 nM

B2: 209275 (protein)
chain: IAARFDHAQWAAELEIKELPNLTYEQRKAFRISLYDDPSVSLEVLGEAQKLNDSQAPK
[2]
  Kd: 124 nM
